Experimental data reported in the supplement of paper PMC8728848.
The other results are listed elsewhere or left out.

How the values were obtained:
Test in all cases: glycan array binding signal (z-score within array); higher = stronger binding
Details in all cases: glycan notation: IUPAC condensed, linker removed
[1] = molecular target: Gal(b1-4)GlcNAc(b1-2)Man(a1-3)[Gal(b1-4)GlcNAc(b1-2)Man(a1-6)]Man(b1-4)GlcNAc(b1-4)GlcNAc
Method in brief: (§1)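 Negative Z-scores can be read as non-binding. The Z-score is calculated within each array and then averaged across arrays of one protein sequence at different concentrations or buffers and across linkers. Arrays, 3228 in all, were curated from the Consortium for Functional Glycomics database and kept only where the protein sequence was available.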

[2] = molecular target: Gal(b1-4)GlcNAc(b1-2)Man(a1-3)[Gal(b1-4)GlcNAc(b1-2)Man(a1-6)]Man(b1-4)GlcNAc(b1-4)[Fuc(a1-6)]GlcNAc
Method in brief: as §1

[3] = molecular target: Gal(b1-4)GlcNAc(b1-2)Man(a1-3)[Gal(b1-4)GlcNAc(b1-2)Man(a1-6)][Gal(b1-4)GlcNAc(b1-4)]Man(b1-4)GlcNAc(b1-4)[Fuc(a1-6)]GlcNAc
Method in brief: as §1

[4] = molecular target: Gal(b1-4)GlcNAc(b1-2)Man(a1-3)[Gal(b1-4)GlcNAc(b1-2)Man(a1-6)][GlcNAc(b1-4)]Man(b1-4)GlcNAc(b1-4)[Fuc(a1-6)]GlcNAc
Method in brief: as §1

[5] = molecular target: Gal(b1-4)GlcNAc(b1-2)Man(a1-3)[GlcNAc(b1-2)Man(a1-6)]Man(b1-4)GlcNAc(b1-4)GlcNAc
Method in brief: as §1

[6] = molecular target: Gal(b1-4)GlcNAc(b1-2)Man(a1-3)[GlcNAc(b1-4)][Gal(b1-4)GlcNAc(b1-2)Man(a1-6)]Man(b1-4)GlcNAc(b1-4)GlcNAc
Method in brief: as §1

[7] = molecular target: Gal(b1-4)GlcNAc(b1-2)Man(a1-3)[Man(a1-6)]Man(b1-4)GlcNAc(b1-4)GlcNAc
Method in brief: as §1

[8] = molecular target: Gal(b1-4)GlcNAc(b1-2)Man(a1-6)Man(b1-4)GlcNAc(b1-4)GlcNAc
Method in brief: as §1

[9] = molecular target: Gal(b1-4)GlcNAc(b1-2)Man(a1-6)[GlcNAc(b1-2)Man(a1-3)]Man(b1-4)GlcNAc(b1-4)GlcNAc
Method in brief: as §1

[10] = molecular target: Gal(b1-4)GlcNAc(b1-2)Man(a1-6)[Man(a1-3)]Man(b1-4)GlcNAc(b1-4)GlcNAc
Method in brief: as §1

[11] = molecular target: Gal(b1-4)GlcNAc(b1-2)[Gal(b1-4)GlcNAc(b1-4)]Man(a1-3)[Gal(b1-4)GlcNAc(b1-2)Man(a1-6)]Man(b1-4)GlcNAc(b1-4)GlcNAc
Method in brief: as §1

[12] = molecular target: Gal(b1-4)GlcNAc(b1-2)[Gal(b1-4)GlcNAc(b1-4)]Man(a1-3)[Gal(b1-4)GlcNAc(b1-2)[Gal(b1-4)GlcNAc(b1-6)]Man(a1-6)]Man(b1-4)GlcNAc(b1-4)GlcNAc
Method in brief: as §1

[13] = molecular target: Gal(b1-4)GlcNAc(b1-2)[Gal(b1-4)GlcNAc(b1-4)]Man(a1-3)[GlcNAc(b1-4)][Gal(b1-4)GlcNAc(b1-2)Man(a1-6)]Man(b1-4)GlcNAc(b1-4)GlcNAc
Method in brief: as §1

[14] = molecular target: Gal(b1-4)GlcNAc(b1-2)[Gal(b1-4)GlcNAc(b1-4)]Man(a1-3)[GlcNAc(b1-4)][Gal(b1-4)GlcNAc(b1-2)[Gal(b1-4)GlcNAc(b1-6)]Man(a1-6)]Man(b1-4)GlcNAc(b1-4)GlcNAc
Method in brief: as §1

[15] = molecular target: Gal(b1-4)GlcNAc(b1-2)[Gal(b1-4)GlcNAc(b1-6)]Man(a1-6)[Gal(b1-4)GlcNAc(b1-2)Man(a1-3)]Man(b1-4)GlcNAc(b1-4)GlcNAc
Method in brief: as §1

[16] = molecular target: Gal(b1-4)GlcNAc(b1-2)[Gal(b1-4)GlcNAc(b1-6)]Man(a1-6)[Gal(b1-4)GlcNAc(b1-2)Man(a1-3)]Man(b1-4)GlcNAc(b1-4)[Fuc(a1-6)]GlcNAc
Method in brief: as §1

[17] = molecular target: Gal(b1-4)GlcNAc(b1-2)[Gal(b1-4)GlcNAc(b1-6)]Man(a1-6)[GlcNAc(b1-4)][Gal(b1-4)GlcNAc(b1-2)Man(a1-3)]Man(b1-4)GlcNAc(b1-4)GlcNAc
Method in brief: as §1

[18] = molecular target: Gal(b1-4)GlcNAc(b1-2)[Gal(b1-4)GlcNAc(b1-6)]Man(a1-6)[GlcNAc(b1-4)][Gal(b1-4)GlcNAc(b1-2)[Gal(b1-4)GlcNAc(b1-4)]Man(a1-3)]Man(b1-4)GlcNAc(b1-4)[Fuc(a1-6)]GlcNAc
Method in brief: as §1

[19] = molecular target: Gal(b1-4)GlcNAc(b1-3)Gal(b1-3)GalNAc
Method in brief: as §1

B1: Gal-9-hFc (Mus musculus), O08573-2 (protein)
chain: MALFSAQSPYINPIIPFTGPIQGGLQEGLQVTLQGTTKSFAQRFVVNFQNSFNGNDIAFHFNPRFEEGGYVVCNTKQNGQWGPEERKMQMPFQKGMPFELCFLVQRSEFKVMVNKKFFVQYQHRVPYHLVDTIAVSGCLKLSFITFQTQNFRPAHQAPMAQTTIHMVHSTPGQMFSTPGIPPVVYPTPAYTIPFYTPIPNGLYPSKSIMISGNVLPDATRFHINLRCGGDIAFHLNPRFNENAVVRNTQINNSWGQEERSLLGRMPFSRGQSFSVWIICEGHCFKVAVNGQHMCEYYHRLKNLQDINTLEVAGDIQLTHVQT
glycan array binding signal (z-score) [1]: -0.481
glycan array binding signal (z-score) [2]: -0.363
glycan array binding signal (z-score) [3]: -0.527
glycan array binding signal (z-score) [4]: -0.619
glycan array binding signal (z-score) [5]: -0.569
glycan array binding signal (z-score) [6]: -0.373
glycan array binding signal (z-score) [7]: 1.45
glycan array binding signal (z-score) [8]: -0.363
glycan array binding signal (z-score) [9]: -0.396
glycan array binding signal (z-score) [10]: -0.279
glycan array binding signal (z-score) [11]: -0.075
glycan array binding signal (z-score) [12]: -0.541
glycan array binding signal (z-score) [13]: -0.401
glycan array binding signal (z-score) [14]: -0.266
glycan array binding signal (z-score) [15]: -0.185
glycan array binding signal (z-score) [16]: -0.447
glycan array binding signal (z-score) [17]: -0.355
glycan array binding signal (z-score) [18]: -0.49
glycan array binding signal (z-score) [19]: -0.39
